Article PMC4336329 (PLoS ONE, 2015)
The campaign covered roughly 310,000 compounds. About 14,000 (4.5%) showed an effect of 50% or more. The effect is printed as a negative number. Some of the results follow.

Each compound was assayed against human ether-à-go-go-related gene (hERG) potassium channel (human, UniProt Q12809) (assay: primary screen, population patch clamp on CHO cells stably expressing hERG).
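Also: peak tail current of the secondary pulse compared with the same well before compound.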

Sequence of human ether-à-go-go-related gene (hERG) potassium channel (Q12809 whole entry, looked up): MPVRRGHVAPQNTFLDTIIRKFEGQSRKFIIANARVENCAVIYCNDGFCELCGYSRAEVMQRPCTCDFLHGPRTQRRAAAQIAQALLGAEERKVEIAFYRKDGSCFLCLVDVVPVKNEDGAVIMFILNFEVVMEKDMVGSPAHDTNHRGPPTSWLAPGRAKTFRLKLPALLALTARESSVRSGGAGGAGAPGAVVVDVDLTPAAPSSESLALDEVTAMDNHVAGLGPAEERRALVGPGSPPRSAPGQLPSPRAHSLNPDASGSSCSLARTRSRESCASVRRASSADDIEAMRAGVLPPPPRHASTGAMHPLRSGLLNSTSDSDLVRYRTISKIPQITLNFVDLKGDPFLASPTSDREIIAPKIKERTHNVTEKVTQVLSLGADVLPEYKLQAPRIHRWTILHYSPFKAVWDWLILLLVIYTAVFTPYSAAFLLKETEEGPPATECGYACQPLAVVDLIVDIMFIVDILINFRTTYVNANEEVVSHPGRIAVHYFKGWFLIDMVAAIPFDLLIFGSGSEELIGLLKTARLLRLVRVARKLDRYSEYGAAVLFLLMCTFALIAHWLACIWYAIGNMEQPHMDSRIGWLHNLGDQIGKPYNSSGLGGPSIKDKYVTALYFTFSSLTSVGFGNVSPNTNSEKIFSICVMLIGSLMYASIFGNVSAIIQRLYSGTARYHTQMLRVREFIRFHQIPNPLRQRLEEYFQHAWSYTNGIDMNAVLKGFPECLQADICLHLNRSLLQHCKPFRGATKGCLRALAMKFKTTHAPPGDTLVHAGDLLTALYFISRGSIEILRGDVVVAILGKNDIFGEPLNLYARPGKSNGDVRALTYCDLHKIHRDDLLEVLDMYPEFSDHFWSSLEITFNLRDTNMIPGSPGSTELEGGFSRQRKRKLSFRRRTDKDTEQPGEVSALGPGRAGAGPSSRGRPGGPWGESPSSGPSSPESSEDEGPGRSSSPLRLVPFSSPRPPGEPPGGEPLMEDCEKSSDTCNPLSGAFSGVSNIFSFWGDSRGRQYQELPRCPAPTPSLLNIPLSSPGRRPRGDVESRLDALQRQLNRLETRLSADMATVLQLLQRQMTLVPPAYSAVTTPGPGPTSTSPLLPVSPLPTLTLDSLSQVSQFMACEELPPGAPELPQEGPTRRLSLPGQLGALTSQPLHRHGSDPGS

| SMILES | hERG current change (%, negative = inhibition) at 10uM |
| --- | --- |
| CCOc1ncccc1C(=O)OCC(=O)c1cccc(Br)c1 | -18.2% |
| Cn1c(=O)c2c(nc(CN3CCN(CCO)CC3)n2Cc2ccccc2Cl)n(C)c1=O | 2.31% |
| O=C(c1ccc(F)cc1)N1CCCC(N2CCN(Cc3ccc4c(c3)OCO4)CC2)C1 (stereo not shown) | -22.2% |
| Cc1ccc2nc(SCC(=O)c3ccc(O)cc3O)[nH]c2c1 | 1.14% |
| O=C(CSc1nc2ccc(Cl)cc2[nH]1)c1ccc2c(c1)OCO2 | -0.302% |
| COc1cc(C(=O)OCC(=O)Nc2ccc(F)cc2F)cc(OC)c1OC | -5.93% |
| CS(=O)(=O)c1ccccc1C(=O)Nc1nc2ccccc2[nH]1 | 13.8% |
| CNC(=O)C1CCCN1S(=O)(=O)c1ccc(OC)cc1 (stereo not shown) | 24.2% |
| Cc1cc(SCC(=O)Nc2ccc(O)cc2)n2ncc(-c3ccccc3)c2n1 | 4.7% |
| Cc1cc(Cl)ccc1OCC(=O)NN1C(=O)C2C3C=CC(C3)C2C1=O (stereo not shown) | 5.12% |
| CC1C(=O)N(Cc2ccc([N+](=O)[O-])cc2)c2ccccc2N1C(=O)C1CC1 (stereo not shown) | -19.4% |
| O=C(O)c1ccc(CNC(=O)c2ccccc2NC(=O)c2cccc([N+](=O)[O-])c2)cc1 | 6.34% |
| O=C(c1ccc2[nH]c(=O)c(=O)[nH]c2c1)N1CCc2ccccc2C1 | 17.1% |
| COc1ccc(CNC(=O)COC(=O)CCS(=O)(=O)c2ccc(C)cc2)cc1OC | 16.9% |
| Cc1ccc(S(=O)(=O)NC(CC(C)C)C(=O)NCc2ccco2)cc1 (stereo not shown) | -4.34% |
| Fc1ccccc1N1CCN(C(c2ccncc2)c2nnnn2C2CCCC2)CC1 (stereo not shown) | -38.8% |
| COc1ccccc1S(=O)(=O)Cc1ccc(C(=O)N2CCN(c3ccc(C)cc3)C(C)C2)o1 (stereo not shown) | -24.6% |
| Cn1ncc2c(Nc3ccc([N+](=O)[O-])cc3)nc(Cl)nc21 | 18.9% |
| Cc1cc(C(=O)N/N=C2\CC(=O)CC(C)(C)C2)c2ccccc2n1 | 23% |
| CC(=O)c1sc(NC(=O)C(C)C)nc1C | -0.878% |
| O=C(NN1C(=O)/C(=C/c2ccc(O)c([N+](=O)[O-])c2)SC1=S)c1ccccc1Cl | 39.8% |
| O=C(Nc1ccc(Br)cc1Cl)c1cnccn1 | 5.88% |

| SMILES | hERG current change (%, negative = inhibition) at 10uM |
| --- | --- |
| CCOCCCN(C(=O)c1snc(C(N)=O)c1N)C(C(=O)NC1CCCC1)c1ccc(O)cc1 (stereo not shown) | 3.52% |
| COc1ccc(C(=O)N(C)Cc2ccccc2)cc1Br | -8.29% |
| CC(=O)c1ccc(NC(=O)c2cc(=O)[nH]c3ccccc23)cc1 | 2.57% |
| COc1ccc(OC)c2sc(N3CCCCC3)nc12 | 8.42% |
| Cc1cnn(C(=S)NCc2ccc(Cl)cc2)c1 | -21.1% |
| CCN(CC)C(=O)Cn1cc(C(=O)C(=O)NCc2ccccn2)c2ccccc21 | 12.3% |
| Cc1ccc(O)c(-c2cc(C(=O)NCc3ccccc3)[nH]n2)c1 | -6.47% |
| COc1ccccc1C(=O)N1CCN(C(=O)Cc2ccccc2)CC1 | 16.3% |
| N#C/C(=C\Nc1ccccc1SC(F)(F)F)c1nc(-c2ccccc2)cs1 | 10.8% |
| COc1cccc(-c2nn(-c3ccccc3)cc2CN2CCCO2)c1 | -5.81% |
| CC(=O)Nc1cccc(C(=O)/C=C/c2ccc(C)cc2)c1 | -23.6% |
| Cc1ccc(S(=O)(=O)N2CCCCC2)cc1NC(=O)CSc1nnc(N)s1 | -20.2% |
| O=C(COc1cccc(C(F)(F)F)c1)NCCCN1CCCC1=O | -9.86% |
| O=C(Cc1ccccc1)Nc1ccc(C(=O)NCc2ccccc2)cc1 | 11.2% |
| COC(=O)c1ccc(NC(=O)C(=O)N2CCCC2)cc1 | -3.97% |
| CC(OC(=O)C1CC(=O)N(Cc2ccccc2)C1)C(=O)Nc1cccc(C#N)c1 (stereo not shown) | -0.693% |
| CC(=O)Nc1ccc(Nc2ccc3nonc3c2[N+](=O)[O-])cc1 | 8.42% |
| O=C(O)c1nccnc1C(=O)NCc1csc2ccc(Cl)cc12 | 19% |
| COC(=O)C1=C2SCC(=O)N2C(N)=C(C#N)C1 | 2.39% |
| Cc1cccnc1NC(=O)COc1ccc2c(c1)CCC2 | 3.73% |
| O=C(NCc1ccccc1)/C(NC(=O)c1ccccc1)=C(/Sc1ccccn1)c1ccccc1 | 12.3% |
